To fix the notation:
B1: PhoQ; a variant is named by its letters at X, in order, P23837 (parent)
chain: MKKLLRLFFPLSLRVRFLLATAAVVLVLSLAYGMVALIGYSVSFDKTTFRLLRGESNLFYTLAKWENNKLHVELPENIDKQSPTMTLIYDENGQLLWAQRDVPWLMKMIQPDWLKSNGFHEIEADVNDTSLLLSGDHSIQQQLQEVREDDDDAEMTHSVAVNVYPATSRMPKLTIVVVDTIPVELKSSYMVWSWFIYVLSANLLLVIPLLWVAAWWSLRPIEALAKEVRELEEHNRELLNPATTRELTSLVRNLNRLLKSERERYDKYRTTLTDLTHSLKTPLXXLQXXLRSLRSEKMSVSDAEPVMLEQISRISQQIGYYLHRASMRGGTLLSRELHPVAPLLDNLTSALNKVYQRKGVNISLDISPEISFVGEQNDFVEVMGNVLDNACKYCLEFVEISARQTDEHLYIVVEDDGPGIPLSKREVIFDRGQRVDTLRPGQGVGLAVAREITEQYEGKIVAGESMLGGARMEVIFGRQHSAPKDE

The other results are listed elsewhere or left out.

The variants in this assay derive from B1. Nature of the assay: enrichment ratio after two sorts for PhoP signalling (ratio (wild type AVST 3.29)); higher = more functional. The settings on record: with PhoP (E. coli).
VHLY: the enrichment ratio is at most 0.25.

Turning to TNHW, the enrichment ratio was at most 0.25. As to YWKD, the enrichment ratio was at most 0.25. Then MSTL, with 10.9. KTFP: the enrichment ratio was at most 0.25.

In the case of MPTH, the enrichment ratio was at most 0.25. For EIFH, the enrichment ratio is at most 0.25. For RQYA the value was at most 0.25; for PVCA, at most 0.25; for HKFD, at most 0.25. Then AVTW, with 43.5. For TCYD the value was at most 0.25; for NDIQ, at most 0.25; for VCCK, at most 0.25. For IPTY, the enrichment ratio is at most 0.25. For AEMT the value was 5.41; for FIRG, at most 0.25. For HTTF the value was at most 0.25; for LTAT, at most 0.25; for IMGP, at most 0.25. For TSEP the value was at most 0.25. Consider IICD, for which the enrichment ratio is at most 0.25. As for VMDV, the enrichment ratio is at most 0.25. Then FKKM, with at most 0.25. With ACMC, the enrichment ratio came to 5.68. For AVMC the value was at most 0.25; for FWET, at most 0.25; for HAIT, at most 0.25. EKHC: the enrichment ratio was at most 0.25. Regarding FKHF, the enrichment ratio is at most 0.25. For DNSW the value was at most 0.25; for WRYY, at most 0.25; for AMYT, 0.317.

In the case of TIKP, the enrichment ratio was at most 0.25. For SSSC the value was 9.78. RKQD: the enrichment ratio was at most 0.25.

With MWTV, the enrichment ratio was at most 0.25. For RRTI the value was at most 0.25; for LDYI, at most 0.25. On to FQNK, for which the enrichment ratio was at most 0.25. For PMNE the value was at most 0.25; for YGQG, at most 0.25. For PWDF, the enrichment ratio was at most 0.25.

Turning to GDLF, the enrichment ratio is at most 0.25. For KQLI the value was at most 0.25.

For KCAI, the enrichment ratio was at most 0.25. Then LQIL, with at most 0.25. As to PAHW, the enrichment ratio is at most 0.25.

With IPWN, the enrichment ratio was at most 0.25. As for DLVY, the enrichment ratio was at most 0.25.

For WHAF, the enrichment ratio is at most 0.25. For FCMH the value was at most 0.25; for QESY, at most 0.25; for PNWN, at most 0.25. For KYCS the value was at most 0.25; for GRRD, at most 0.25; for NCYW, at most 0.25. Take SDYI: the enrichment ratio is at most 0.25.

As for VNWG, the enrichment ratio was at most 0.25.

With GATY, the enrichment ratio is at most 0.25.

For KQAD, the enrichment ratio was at most 0.25. For the variant RACK, the enrichment ratio was at most 0.25. Then MHIL, with at most 0.25; and IRGH, with at most 0.25; and SSYN, with at most 0.25. With FYAL, the enrichment ratio was at most 0.25. For RWFH the value was at most 0.25; for IIAM, at most 0.25.

For DDYC, the enrichment ratio is at most 0.25. For NRNT the value was at most 0.25; for LWQY, at most 0.25. For the variant NPGV, the enrichment ratio is at most 0.25. For TTRW, the enrichment ratio is at most 0.25. For KFLE the value was at most 0.25. Then RELD, with at most 0.25; and SKWI, with at most 0.25; and IVVY, with at most 0.25. For GNMT the value was at most 0.25; for GFEV, at most 0.25. As to CLSF, the enrichment ratio was 10.1. Then DLHG, with at most 0.25. Then TGHG, with 4.69; and TAWI, with 10.7. For YCPN the value was at most 0.25.

As for FTII, the enrichment ratio was at most 0.25. For GATV the value was 0.428. In the case of NCWD, the enrichment ratio is at most 0.25. Then TWGR, with at most 0.25; and TNRC, with at most 0.25; and EAYD, with at most 0.25. Then IYWK, with at most 0.25; and GKPW, with at most 0.25. For SYCD the value was at most 0.25; for DHWH, at most 0.25. Turning to TKQC, the enrichment ratio was 12.8. Then RKEE, with at most 0.25; and TYMC, with at most 0.25. With DDWL, the enrichment ratio was at most 0.25. Then DMDK, with at most 0.25; and GDMT, with at most 0.25. For KTTW the value was at most 0.25; for KVCI, at most 0.25; for QMIH, 1.16. Then DQAW, with at most 0.25; and TMIA, with at most 0.25. WKFI: the enrichment ratio was at most 0.25. Then QDYM, with at most 0.25. With YWMK, the enrichment ratio was at most 0.25. Then MSSS, with 0.538. For VAAD the value was at most 0.25; for IYVT, at most 0.25. As to IQGD, the enrichment ratio is at most 0.25.

Regarding KEVG, the enrichment ratio was at most 0.25. Then MGHP, with at most 0.25. Then MYAS, with at most 0.25.

Consider YYHK, for which the enrichment ratio is at most 0.25. With YCLL, the enrichment ratio came to 10.2. For AQLS the value was 10.2; for TIDT, at most 0.25; for MYDE, at most 0.25. Then RDIQ, with at most 0.25. Then SQWW, with at most 0.25; and NHGL, with at most 0.25. Consider PHKF, for which the enrichment ratio is at most 0.25. For PHVV the value was at most 0.25; for TTSG, 19.5.

As for GMWA, the enrichment ratio is at most 0.25.

Take SPKF: the enrichment ratio was at most 0.25.

Regarding DANG, the enrichment ratio was at most 0.25. Then WCEF, with at most 0.25; and SIEM, with at most 0.25; and SADL, with at most 0.25. For YQPT the value was at most 0.25; for GRDR, at most 0.25. Then SKAW, with at most 0.25; and RYWL, with at most 0.25; and WEVW, with at most 0.25. As to RPIN, the enrichment ratio is at most 0.25. For WLII, the enrichment ratio was at most 0.25. For DTMP, the enrichment ratio is at most 0.25.

For NINK, the enrichment ratio was at most 0.25.

For the variant IPEE, the enrichment ratio is at most 0.25. For GRMN the value was at most 0.25; for MTLN, 2.09. Then DYRF, with at most 0.25; and KGYD, with at most 0.25; and KKLN, with at most 0.25. Then NYPI, with at most 0.25; and WETV, with at most 0.25. Take IHGC: the enrichment ratio is at most 0.25.

Consider WTAS, for which the enrichment ratio was at most 0.25.

As for KIGC, the enrichment ratio was at most 0.25.

In the case of EYMI, the enrichment ratio is at most 0.25.

These data come from a collection of fitness landscapes (doi:10.1126/science.1257360).
